The text below walks through data of PMC11680393 (Viruses, 2024).

The test system of this assay is RSV A2. Particulars: 0.1 µg/mL apical, once daily Day 0 to Day 6, RSV A2 0.002 MOI, for the duration of the experiment.

For the molecule `Cc1cnc(N2CC3(CCOCC3)C2)c(C(=O)Nc2ccc(C(=O)N3CCc4cc(C(=O)Nc5c(C)cccc5F)sc4-c4ccccc43)cc2)c1` [PC786], the “viral quantity in apical washes (plaque assay)” value is recorded as “below detectable limits”.
